Data reported in article PMC8948191.
Results are given in words; binding and its absence hold for the method and conditions named. Binding seen in cells or lysates may run through a third protein. Some results given as binding are weak or reduced against the parent protein; the word gives no strength. Sequences can lack the tags named with a protein. Blank lines part the entries; values can stand above or below the binder they belong to.

Amino acid sequences for entries named in this document (tags omitted).
UniProt Q9VQE0: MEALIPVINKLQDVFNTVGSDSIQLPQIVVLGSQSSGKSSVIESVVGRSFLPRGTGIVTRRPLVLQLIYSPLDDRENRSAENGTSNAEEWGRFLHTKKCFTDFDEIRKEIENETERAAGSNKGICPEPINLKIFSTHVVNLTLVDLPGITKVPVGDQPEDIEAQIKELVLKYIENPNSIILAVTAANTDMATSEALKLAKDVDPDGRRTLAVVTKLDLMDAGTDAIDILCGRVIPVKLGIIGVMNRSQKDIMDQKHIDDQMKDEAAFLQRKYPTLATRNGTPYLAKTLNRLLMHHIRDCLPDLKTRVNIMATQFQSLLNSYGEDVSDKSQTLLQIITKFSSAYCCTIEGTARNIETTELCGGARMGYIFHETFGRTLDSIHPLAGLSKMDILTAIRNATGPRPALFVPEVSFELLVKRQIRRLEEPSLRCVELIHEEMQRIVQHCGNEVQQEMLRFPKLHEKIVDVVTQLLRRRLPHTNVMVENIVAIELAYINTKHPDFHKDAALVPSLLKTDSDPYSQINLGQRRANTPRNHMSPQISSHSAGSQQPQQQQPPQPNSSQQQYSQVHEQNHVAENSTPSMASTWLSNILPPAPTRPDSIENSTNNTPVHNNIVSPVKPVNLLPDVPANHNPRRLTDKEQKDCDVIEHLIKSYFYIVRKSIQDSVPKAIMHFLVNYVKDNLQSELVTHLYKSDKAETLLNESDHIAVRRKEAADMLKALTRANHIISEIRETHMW

Assays:
FLAG-CLUH (human) = target: T1, FLAG-CLUH (human) (UniProt O75153); experiment: co-IP; lysates (RIPA buffer) of HeLa cells transfected with the indicated constructs; IP with mouse anti-FLAG antibody, Dynabeads Protein G; western blot
T1 sequence: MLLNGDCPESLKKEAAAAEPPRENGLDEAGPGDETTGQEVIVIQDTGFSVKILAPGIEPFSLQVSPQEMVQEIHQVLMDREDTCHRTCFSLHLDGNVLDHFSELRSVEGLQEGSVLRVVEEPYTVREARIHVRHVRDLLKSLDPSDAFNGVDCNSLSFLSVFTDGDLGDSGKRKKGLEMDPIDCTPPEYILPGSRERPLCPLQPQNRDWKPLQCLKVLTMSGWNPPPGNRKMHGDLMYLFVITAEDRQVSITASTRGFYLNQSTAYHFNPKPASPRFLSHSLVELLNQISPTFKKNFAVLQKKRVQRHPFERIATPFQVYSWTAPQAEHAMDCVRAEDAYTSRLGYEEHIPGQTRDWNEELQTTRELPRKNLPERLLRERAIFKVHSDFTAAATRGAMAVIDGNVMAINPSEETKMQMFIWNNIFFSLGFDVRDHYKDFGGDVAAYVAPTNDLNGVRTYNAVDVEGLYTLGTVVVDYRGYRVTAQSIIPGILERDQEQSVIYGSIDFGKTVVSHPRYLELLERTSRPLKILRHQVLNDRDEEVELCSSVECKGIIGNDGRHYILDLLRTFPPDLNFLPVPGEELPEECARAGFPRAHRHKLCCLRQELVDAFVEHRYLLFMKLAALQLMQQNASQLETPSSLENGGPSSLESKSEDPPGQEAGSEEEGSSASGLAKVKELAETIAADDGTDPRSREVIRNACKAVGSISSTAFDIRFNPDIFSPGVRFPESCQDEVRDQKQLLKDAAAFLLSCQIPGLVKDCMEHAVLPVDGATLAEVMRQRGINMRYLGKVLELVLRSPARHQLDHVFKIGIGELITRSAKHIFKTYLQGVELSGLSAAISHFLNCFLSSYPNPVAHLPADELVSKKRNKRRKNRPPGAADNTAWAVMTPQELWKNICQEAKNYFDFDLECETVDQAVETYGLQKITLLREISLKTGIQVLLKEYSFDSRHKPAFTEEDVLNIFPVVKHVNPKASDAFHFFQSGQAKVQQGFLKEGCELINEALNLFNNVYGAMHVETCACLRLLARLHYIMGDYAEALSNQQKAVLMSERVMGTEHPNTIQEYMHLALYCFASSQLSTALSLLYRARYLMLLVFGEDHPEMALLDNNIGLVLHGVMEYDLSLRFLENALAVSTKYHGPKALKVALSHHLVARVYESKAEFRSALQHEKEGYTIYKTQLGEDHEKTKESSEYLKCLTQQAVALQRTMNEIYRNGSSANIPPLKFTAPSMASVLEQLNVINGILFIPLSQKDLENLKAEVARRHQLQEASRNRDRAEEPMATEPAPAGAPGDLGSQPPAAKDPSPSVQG

[1] = target: T2, FLAG-tagged Clu (Drosophila Clueless) (Drosophila) (UniProt A1ZAB5); experiment: co-IP; lysates (RIPA buffer) of Drosophila S2 cells transfected with tagged constructs; IP with mouse anti-FLAG or mouse anti-Myc antibody, Dynabeads Protein G; western blot
T2 sequence: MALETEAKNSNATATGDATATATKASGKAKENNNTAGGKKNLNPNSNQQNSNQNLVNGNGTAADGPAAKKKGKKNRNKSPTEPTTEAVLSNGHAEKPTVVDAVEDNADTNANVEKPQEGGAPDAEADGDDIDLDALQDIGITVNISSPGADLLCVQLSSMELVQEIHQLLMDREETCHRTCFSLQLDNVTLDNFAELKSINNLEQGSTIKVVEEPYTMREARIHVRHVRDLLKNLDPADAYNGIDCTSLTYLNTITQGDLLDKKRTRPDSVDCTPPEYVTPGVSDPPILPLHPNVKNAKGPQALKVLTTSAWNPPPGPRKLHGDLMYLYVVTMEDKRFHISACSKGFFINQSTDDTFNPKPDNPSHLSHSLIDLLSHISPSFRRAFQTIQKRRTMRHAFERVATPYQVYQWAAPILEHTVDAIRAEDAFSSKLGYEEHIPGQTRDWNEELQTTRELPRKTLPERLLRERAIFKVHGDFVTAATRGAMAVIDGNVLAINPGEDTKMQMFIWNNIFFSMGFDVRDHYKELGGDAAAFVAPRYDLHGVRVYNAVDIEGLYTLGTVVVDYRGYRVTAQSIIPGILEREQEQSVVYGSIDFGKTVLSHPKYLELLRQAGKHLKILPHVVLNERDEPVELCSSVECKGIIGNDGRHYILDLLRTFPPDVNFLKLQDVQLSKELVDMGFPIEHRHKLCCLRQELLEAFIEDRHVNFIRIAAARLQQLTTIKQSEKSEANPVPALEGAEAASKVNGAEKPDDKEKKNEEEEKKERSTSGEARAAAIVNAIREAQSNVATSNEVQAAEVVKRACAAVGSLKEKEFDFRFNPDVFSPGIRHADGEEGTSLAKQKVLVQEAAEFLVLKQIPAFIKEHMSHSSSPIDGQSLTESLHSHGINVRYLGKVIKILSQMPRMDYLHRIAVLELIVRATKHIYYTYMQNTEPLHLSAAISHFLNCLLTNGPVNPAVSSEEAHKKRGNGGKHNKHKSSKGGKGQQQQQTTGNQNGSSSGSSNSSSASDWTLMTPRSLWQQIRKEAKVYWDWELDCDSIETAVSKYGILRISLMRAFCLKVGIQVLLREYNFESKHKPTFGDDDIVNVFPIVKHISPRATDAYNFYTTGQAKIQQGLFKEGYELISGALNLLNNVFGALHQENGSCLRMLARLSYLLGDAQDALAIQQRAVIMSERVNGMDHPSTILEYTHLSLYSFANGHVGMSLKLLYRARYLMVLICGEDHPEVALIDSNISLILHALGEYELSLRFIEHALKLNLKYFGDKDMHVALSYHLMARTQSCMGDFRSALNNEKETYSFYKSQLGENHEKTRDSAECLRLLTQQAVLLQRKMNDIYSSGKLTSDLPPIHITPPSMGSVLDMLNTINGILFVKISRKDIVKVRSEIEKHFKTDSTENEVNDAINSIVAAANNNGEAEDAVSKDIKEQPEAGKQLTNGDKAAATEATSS

[2] = target: Myc-tagged Drp1 (Drosophila) (Drosophila) (UniProt Q9VQE0); experiment: as above

binding (FLAG-CLUH (human)): binds
B1: MiD49-Myc (protein, UniProt Q96C03 1-454)
chain: MAEFSQKRGKRRSDEGLGSMVDFLLANARLVLGVGGAAVLGIATLAVKRFIDRATSPRDEDDTKADSWKELSLLKATPHLQPRPPPAALSQPVLPLAPSSSAPEGPAETDPEVTPQLSSPAPLCLTLQERLLAFERDRVTIPAAQVALAKQLAGDIALELQAYFRSKFPELPFGAFVPGGPLYDGLQAGAADHVRLLVPLVLEPGLWSLVPGVDTVARDPRCWAVRRTQLEFCPRGSSPWDRFLVGGYLSSRVLLELLRKALAASVNWPAIGSLLGCLIRPSMASEELLLEVQHERLELTVAVLVAVPGVDADDRLLLAWPLEGLAGNLWLQDLYPVEAARLRALDDHDAGTRRRLLLLLCAVCRGCSALGQLGRGHLTQVVLRLGEDNVDWTEEALGERFLQALELLIGSLEQASLPCHFNPSVNLFSSLREEEIDDIGYALYSGLQEPEGLL

binding (FLAG-CLUH (human)): binds
B2: GFP-Mff (protein, UniProt Q9GZY8 1-342)
chain: MSKGTSSDTSLGRVSRAAFPSPTAAEMAEISRIQYEMEYTEGISQRMRVPEKLKVAPPNADLEQGFQEGVPNASVIMQVPERIVVAGNNEDVSFSRPADLDLIQSTPFKPLALKTPPRVLTLSERPLDFLDLERPPTTPQNEEIRAVGRLKRERSMSENAVRQNGQLVRNDSLWHRSDSAPRNKISRFQAPISAPEYTVTPSPQQARVCPPHMLPEDGANLSSARGILSLIQSSTRRAYQQILDVLDENRRPVLRGGSAAATSNPHHDNVRYGISNIDTTIEGTSDDLTVVDAASLRRQIIKLNRRLQLLEEENKERAKREMVMYSITVAFWLLNSWLWFRR

binding [1]: binds
B3: PINK1 (positive control in S2 cells) (protein, UniProt Q0KHV6 6-721)
chain: LTVRLIKHGRYILRSYCKRDIHANILDQNQLKTRSKRGFPLPSTAANVLRTTPQQAAKSVVNVVPRTINSPSGSPFNGSGSSPTSSSGIFRVGQHARKLFIDNILSRVTTTYSEDLRQRATRKLFFGDSAPFFALIGVSLASGSGVLSKEDELEGVCWEIREAASRLQNAWNHDEISDTLDSKFTIDDLEIGPPIAKGCAAVVYAADFKKDVASDGASLHTDAQPQATPAFAPNSWSTHEMMSPLQNMSRFVHNFGGSVDNVFHYSQPSAASDFVGAQSREQDQRHHEQQQHQNQEQEQHQNQEPSSSAFNVTSPANSNINSSVDSYPLALKMMFNYDIQSNALSILRAMYKETVPARQRGMNEAADEWERLLQNQTVHLPRHPNIVCMFGFFCDEVRNFPDGHLLYPVAQPQRINPQGYGRNMSLYLLMKRYDHSLRGLLDSQDLSTRNRILLLAQMLEAVNHLSRHGVAHRDLKSDNVLIELQDDAAPVLVLSDFGCCLADKVHGLRLPYVSHDVDKGGNAALMAPEIFNTMPGPFAVLNYGKADLWACGALAYEIFGNRNPFYSSSGGMARERGEMTLSLRNSDYRQDQLPPMSDACPPLLQQLVYNILNPNPSKRVSPDIAANVVQLFLWAPSNWLKAGGMPNSPEILQWLLSLTTKIMCEGRPQMGAGLMPVASCGNRRAYVEYLLICSFLARARLRRIRGALNWIQNVVA

binding [2]: binds
B4: FLAG-tagged Clu (Drosophila Clueless) (protein, UniProt A1ZAB5 1-1448)
chain: T2 sequence
